The list shows a part of the results.
Test system: T1, C. trachomatis L2/434/Bu expressing GFP (CTL2-GFP)
T1 construct: L2/434/Bu GFP intracellular growth in HeLa cells
Design: species or system HeLa; C. trachomatis total inclusion area by high-content imaging, normalised to DMSO
Details: total inclusion area; 28.5 h, 10 µM; inhibitor
Method in brief: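 Imaging read-out: GFP inclusions and Hoechst nuclei captured by high-content imaging after fixation. Inclusion area/number = chlamydial growth; nuclei count = host cell viability. MIC calculated per earlier method.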

| Compound | % of control remaining |
| --- | --- |
| O=C(Cn1nnc2ccccc21)NCCN1CCCC1 [CBK267200] | 107.21 |
| CCOc1ccccc1NC(=O)CCCN1C(=O)c2ccccc2C1=O [CBK265608] | 85.0856 |
| CC1(C)CC(=O)c2sc(NC(=O)CN3C(=O)CCC3=O)nc2C1 [CBK287558] | 100.69 |
| O=C(Nc1cccc(C(F)(F)F)c1)Nc1cc(N2CCNCC2)c2occc2c1 [CBK061746C] | 56.0657 |
| O=C(NN=C1CCCCCCCCCCC1)c1cc2ccccc2cc1O [CBK261706] | 98.8054 |
| COc1ccc2cc(CNc3ccc(Oc4ccccc4)cc3)c(=O)[nH]c2c1 [CBK286158] | 114.551 |
| O=C(O)C(CCCN1CCCC1)(c1ccccc1)c1ccccc1 [CBK022695G] | 71.9314 |
| CCN1CCC2(CC1)CN(CC(N)=O)c1ccccc12 [CBK126798] | 101.682 |
| CC1CCc2c(sc(NC(=S)NC(=O)c3cc4ccccc4o3)c2C#N)C1 (stereo not shown) [CBK266319] | 140.405 |
| Cc1cc(NC(=O)N2CCN(c3ncccc3C#N)CC2)no1 [CBK305901] | 52.791 |
| CCOC(=O)CN1CCC(Oc2cncc(OCc3cccnc3)n2)C1 (stereo not shown) [CBK084462] | 105.982 |
| O=C(NCCN1CCCCC1)C1CC(=O)N(c2ccccc2F)C1 (stereo not shown) [CBK305148] | 35.057 |
| CC1CCN(S(=O)(=O)c2cc(C(=O)OCC(=O)c3ccccc3)c(Cl)cc2Cl)CC1 [CBK264470] | 100.723 |
| Cc1ccc(-c2ncc(OCc3ccccc3)nc2N)c(C)c1 [CBK145129] | 74.2428 |
| CC(C)C(=O)NCCN1CCOCC1 [CBK034322] | 50.1253 |
| COC(=O)CCc1ccc(S(=O)(=O)N2CCN(Cc3csc(-c4ccccc4)n3)CC2)cc1 [CBK062812] | 88.9303 |
| OC(COc1cccc2c1CCCC2)CN1CCC(Cc2ccccc2)CC1 (stereo not shown) [CBK003829] | 51.2942 |
| CCNS(=O)(=O)c1ccc(CCC(=O)Nc2ccc3c(c2)OCCO3)cc1 [CBK268255] | 88.889 |
| Cc1cc(-c2cc(=O)n(Cc3ccccc3F)nc2C2CC2)on1 [CBK284366] | 72.4474 |
| O=C(NC[C@H]1CC[C@H](c2cc(C(=O)N3CCOCC3)c3ccccc3n2)CC1)C1CCCC1 [CBK285979] | 115.934 |
| Cc1nc(SCC(=O)N2CCC(C)CC2)c2c3c(sc2n1)CCC3 [CBK265944] | 91.282 |

| Compound | % of control remaining |
| --- | --- |
| Cc1cc(-c2cc3nc(C)c(C)c(O)n3n2)c(C)o1 [CBK284500] | 101.066 |
| COc1cc(OC)cc(C(=O)N2CCC3(CC2)CC(=O)c2cc(C)c(C)cc2O3)c1 [CBK164201] | 131.07 |
| Cc1nc(C2CCCC2)cc([C@H]2CN3CC[C@H]2C[C@@H]3CNC(=O)c2ccco2)n1 [CBK289120] | 114.304 |
| Cn1ccnc1SCC(=O)Nc1ccc(I)cc1 [CBK057541] | 59.9924 |
| COc1ccccc1OCCOc1cccc(/C=N/n2cnnc2)c1 [CBK263288] | 26.5134 |
| O=C(CSCc1nc(O)c2c3c(sc2n1)CCCC3)NC1CCCCC1 [CBK265684] | 115.437 |
| CC(=O)Nc1ccc(C(=O)CSc2nc(-c3ccccc3)cs2)cc1 [CBK268038] | 107.733 |
| COc1cc(CN2CCN(C(=O)c3ccccc3)CC2)cc(OC)c1O [CBK263462] | 85.6208 |
| CCn1cc(C(=O)N2CCCCC2c2nc3ccccc3[nH]2)c(C)n1 (stereo not shown) [CBK283778] | 77.044 |
| OCC1CCCN1c1cncc(-c2ccc3ccccc3c2)n1 (stereo not shown) [CBK037197] | 81.9064 |
| COc1ccc(-n2cnc3ccccc3c2=O)cc1 [CBK288145] | 98.5063 |
| N/C(=N\OC(=O)CCCc1ccccc1)c1ccc(Cl)cc1 [CBK264454] | 81.6318 |
| CCn1cc(S(=O)(=O)Nc2cc(C)on2)cn1 [CBK270302] | 79.5057 |
| O=C(c1cc[nH]n1)N1CCc2nc(-c3cccc(F)c3)sc2C1 [CBK281915] | 89.0821 |
| CS(=O)(=O)N(Cc1ccc(Cl)cc1)c1ccc(C(=O)N2CCC(C(N)=O)CC2)cc1 [CBK265327] | 101.05 |
| O=C(O)c1ccc(NC(=O)c2cn(-c3ccccc3)nc2-c2cc3ccccc3oc2=O)cc1 [CBK266432] | 116.06 |
| COc1ccc(-n2ncc3c2CCCN(C(=O)C2CCCC2)C3)cc1 [CBK284501] | 39.0724 |
| COc1ccc(C2=NNC(=O)C(c3ccc(OC)cc3)C2)cc1 (stereo not shown) [CBK287908] | 123.264 |
| O=C(O)c1ccc(S(=O)(=O)c2ccc(C(=O)O)c(C(=O)O)c2)cc1C(=O)O [CBK022872] | 84.7164 |
| Nc1cc(-c2ccccc2)nn1-c1ccc(C(=O)O)cc1 [CBK286565] | 88.073 |
| O=C(COc1ccc(S(=O)(=O)N2CCOCC2)cc1)NCc1ccco1 [CBK268377] | 83.8941 |

| Compound | % of control remaining |
| --- | --- |
| COCCNC(=O)c1cc(-c2cccc(C(=O)N(C)C)c2)cnc1N1CCOCC1 [CBK076464] | 108.786 |
| CC(=O)Nc1cccc(Oc2nccnc2-c2ccc(F)cc2)c1 [CBK106900] | 4.465 |
| CCC(=O)N1CCCC1c1nc(C)c2c(n1)N(CCc1ccccc1OC)CCC2 (stereo not shown) [CBK286246] | 107.79 |
| O=C1CCC(=O)N1CCOc1nccnc1OC1CCN(CCc2ccccn2)CC1 [CBK084360] | 93.5231 |
| CS(=O)(=O)Nc1cc2ccccc2c(-c2cccnc2)n1 [CBK085747] | 104.158 |
| CSc1nnc(-c2cccs2)n1C [CBK067702] | 48.914 |
| Cn1nnc2cc(NC(=O)NCc3csc(N4CCOCC4)n3)ccc21 [CBK307492] | 46.7697 |
| Cn1cc(NC(=O)N2CCCN(Cc3ccccn3)CC2)nn1 [CBK307034] | 85.8745 |
| CC(COC(C)(C)C)Oc1nccnc1OCc1ccc(Cl)c(Cl)c1 (stereo not shown) [CBK161607] | 99.4895 |
| Cc1cc(C[C@@H]2COC[C@H]2NCCc2ccccc2)on1 [CBK284882] | 99.9679 |
| COc1ccccc1Cn1ncc2c1CCCC2NC(=O)C1CCC1 (stereo not shown) [CBK282895] | 81.2981 |
| O=C(C1CCCC1)N1CCC(c2nnc3n2CCCCC3)CC1 [CBK284612] | 94.6094 |
| COc1ccc(CN2CCCN(C(=O)c3ccnc(Cl)c3)CC2)cc1 [CBK305364] | 101.462 |
| O=C(O)C1(Oc2ccc3ncccc3c2)CCN(CC2CCOC2)CC1 (stereo not shown) [CBK307336] | 31.5537 |
| Cc1cccc(OCC(=O)NC(=S)Nc2ccccc2N2CCCCC2)c1C [CBK266298] | 83.7712 |
| Cc1ccc2[nH]c3c(c2c1)CCCC3NCC(O)Cc1ccccc1 (stereo not shown) [CBK263154] | 63.8001 |
| Cc1ccc2oc(C(=O)Nc3ccc(-n4cnnn4)cc3)c(C)c2c1 [CBK287804] | 106.549 |
| CCOC(=O)CC(=O)CSc1nc(C)cc(-c2cccnc2)c1C#N [CBK267460] | 110.252 |
| Cc1nccn1-c1ccc(NC(=O)C2CC(=O)N(C3CCCC3)C2)cc1F (stereo not shown) [CBK298286] | 84.2479 |
| Nc1ccc(-c2cnc(NCc3ccc4c(c3)OCO4)c(C(=O)Nc3ccc4c(c3)OCCO4)c2)cc1 [CBK138480T] | 60.9018 |
| CC(=O)c1cccc(-c2nc(CC3CCN(C)CC3)nn2CCO)c1 [CBK306645] | 83.5476 |

| Compound | % of control remaining |
| --- | --- |
| CCOc1ccccc1NC(=O)Nc1cccc(S(N)(=O)=O)c1 [CBK057282] | 98.1861 |
| OCCNc1nccnc1Cl [CBK089793] | 25.2945 |
| CCSc1nc2ccccc2n1C(=O)c1ccc(S(=O)(=O)N2CCCCCC2)cc1 [CBK265825] | 69.3298 |
| Cc1c(C(=O)Nc2cccc(S(=O)(=O)NCc3ccco3)c2)cnn1-c1ccccc1 [CBK297762] | 91.4606 |
| COc1ccc(CCNC(=O)Nc2ccccc2[N+](=O)[O-])cc1 [CBK266497] | 119.311 |
| Nc1nc(NCc2ccccc2)nc(-c2cc(Cl)ccc2O)n1 [CBK074526] | 69.5297 |
| O=C(CSc1ccccn1)Nc1cccc(Cl)c1Cl [CBK057679] | 75.9679 |
| Cc1ccc(N2C(=O)CSC2c2ccc(Cl)cc2Cl)cc1 (stereo not shown) [CBK025673] | 82 |
| CCn1c(=O)n(CC(=O)N(C)C)c2cccnc21 [CBK282299] | 97.0274 |
| COc1ccc(C(=O)N2CCC3(CCN(C(=O)c4ccc5[nH]c(=O)[nH]c5c4)C3)C2)cc1OC (stereo not shown) [CBK131793] | 60.221 |
| CCC(C)NC(=O)C1=CCN(S(C)(=O)=O)C1 (stereo not shown) [CBK282861] | 77.539 |
| Oc1ccc(Nc2cc(-c3ccc(Cl)cc3)ncn2)cc1 [CBK090751] | 112.219 |
| CCCS(=O)(=O)Nc1nccnc1N1CCN(c2cnccn2)CC1 [CBK048828] | 83.2036 |
| CS(=O)(=O)c1ccc(-c2nccnc2N2CCCCC2CO)cc1 (stereo not shown) [CBK037657] | 104.896 |
| Cc1ccc(C(=O)N2CN(C(=O)CNC3CC3)CC2(C)C)cc1 [CBK089574C] | 4.374 |
| CC(=O)Nc1ccc(S(=O)(=O)N2CCCC(CO)C2)cc1 (stereo not shown) [CBK262108] | 92.8084 |
| Cc1ccc(C(=O)O)c(NC(=O)c2ccccc2F)c1 [CBK126744] | 70.999 |
| CS(=O)(=O)N(CC(=O)O)c1cccc(C(F)(F)F)c1 [CBK286988] | 91.8505 |
| COc1ccc(-c2cc([C@H]3CN4CC[C@H]3C[C@@H]4CNC(C)=O)n(C)n2)cc1OC [CBK288757] | 111.155 |

— article PMC12040169 (PLOS Biology, 2025)
